# Results taken from the supplement of paper PMC3334620.
# In all, about 33,000 sequences were measured (“E-score (-0.5 to 0.5)”: median about -0.056, highest 2% from about 0.38 on). The list shows a part of the results.
# Molecular target: Stb4 (UniProt P50104)
# Assay: PBM E-score (8-mer binding enrichment) (E-score (-0.5 to 0.5)); higher = stronger / more preferred TF binding; most listed sequences are background and not binding sites
# Conditions: protein concentration: 200 nM; construct: GST-DNA-binding domain
# Method in brief: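 Each ungapped eight-base word and its reverse complement, pooled, received an E-score from the Universal PBM Analysis Suite. Underlying scans, normalised with masliner, recorded fluorescent anti-GST bound to GST-tagged yeast transcription factors. These were applied at about 100-200 nM to universal all-10-mer Agilent arrays double-stranded by primer extension.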
row,Sequence,PBM E-score
1,GAGTCGTA,-0.0616
2,GGCCCGTA,0.162
3,AATTCTAT,-0.0705
4,CCTTTGCG,-0.0443
5,GTTGTGTA,-0.126
6,CGGCCACC,0.134
7,GCATCGAC,-0.0573
8,TAACCCCA,-0.0162
9,CCAATGAC,-0.221
10,CCAGGCGA,-0.178
11,ATCAGCTG,-0.139
12,GATCGTTA,-0.0474
13,CACCAGAA,-0.172
14,TCCTAAAA,-0.159
15,GATGACGA,-0.131
16,AGGACACA,-0.174
17,CTTCCGAA,0.479
18,ACACGGCT,0.251
19,AATTGCTG,-0.143
20,ATACCAAC,-0.0701
21,GCCATGAA,0.0133
22,CATACGCG,0.163
23,CCCTTGCA,-0.292
24,GGAGACGA,0.194
25,GTCAGACA,-0.0277

row,Sequence,PBM E-score
1,ATGCGGCC,-0.0252
2,ATATTTAG,-0.0263
3,GATCCGGA,0.421
4,ATACGGCG,-0.00354
5,AATTTCGC,0.123
6,ATAGCATC,-0.061
7,CATTCCAA,-0.2
8,CGCCAGAA,-0.00332
9,CTAGAAGA,0.0374
10,AAGCTCCA,-0.205
11,ACCGGCCC,0.157
12,TTAGGAAA,-0.0826
13,CGGGTATC,0.404
14,GCGGTCGA,0.0679
15,AGGAATAC,-0.0874
16,TGGGGCAA,-0.317
17,CATAAAGC,-0.299
18,GGGTTATA,0.0301
19,ATACACAG,-0.189
20,GGGGCCCA,-0.0108
21,CAAATCAG,-0.326
22,TACGACGA,-0.0447
23,GGCTCATA,-0.0793
24,CATTCCGA,0.449
25,CTGATAGC,-0.0771

row,Sequence,PBM E-score
1,AGCACCTC,-0.053
2,CCTAAATA,-0.0477
3,ACCCCAAA,-0.0209
4,ATATTTCA,-0.129
5,AACAAGGG,-0.0125
6,AAACAAAC,-0.0932
7,AAGATCTG,-0.199
8,CTCCCAAA,-0.171
9,CGCATCAA,0.0444
10,AAAATGGT,-0.00372
11,ATTGACCC,0.0534
12,ACTCAACG,-0.0775
13,ACGGCGCT,-0.146
14,ACTTAAGG,-0.0202
15,ATAGGTGG,-0.146
16,ACTTTTGG,-0.0657
17,AAACCGTG,-0.0408
18,CCGTTACA,0.205
19,CCTGCAGC,-0.21
20,GCCGCATA,0.104
21,TATCCATA,-0.0184
22,TGCCAACA,-0.079
23,AGTTAGTG,-0.0476
24,AAATAGAT,0.0389
25,TATCGGGA,0.361

row,Sequence,PBM E-score
1,ATGTCCTA,-0.191
2,ACATCCCT,0.0026
3,TGTAGGAA,-0.124
4,AGGTTGAA,-0.0295
5,CACGTCCC,-0.143
6,AAGAGCTG,-0.153
7,AAATACCG,0.286
8,AGGCCCAA,-0.0413
9,TTATAGAA,-0.304
10,CGCCACAG,-0.0946
11,ATTGAAAG,-0.0669
12,CCGAAATA,0.401
13,CCTGTTTC,-0.108
14,AGCAGTCA,-0.116
15,CGATTCCG,0.37
16,AGCTTACA,-0.0787
17,CTCGTAGA,-0.246
18,GGGAGGAA,0.163
19,TAGCGGCA,0.0954
20,AAACCAGC,0.0486
21,GAAGTGGA,0.0118
22,ACCGGCGA,0.119
23,ACTGTGAT,-0.0464
24,CTCTATAA,-0.0492
25,CATATAGG,-0.153

row,Sequence,PBM E-score
1,TACTGACA,-0.119
2,ATAAGCAC,-0.0522
3,AAACTATC,-0.0321
4,ACATCATC,-0.0953
5,CTGGGTGC,-0.151
6,GGCCAATA,0.133
7,AACGACGA,-0.0529
8,GAGAGCTA,-0.101
9,GAAGATGA,-0.157
10,ACCGTACA,0.00999
11,GTACGCCA,-0.109
12,ACTAAACG,-0.105
13,CTGACTAC,-0.282
14,GACCTCCA,0.0736
15,TCCGGCGA,0.313
16,AACGCGGC,0.0881
17,CCGGACAA,0.186
18,GGAGTATA,0.235
19,CGGTCTTC,0.156
20,GTGATCGA,-0.0698
21,CCCATGAG,-0.138
22,ATGAATGA,-0.168
23,GGAAAGCC,0.169
24,ATTGGCCA,-0.209
25,TGGTGCAA,-0.312

row,Sequence,PBM E-score
1,GTCCCTTA,-0.141
2,ATTAGCAA,-0.12
3,ACCGCCGC,0.0939
4,AAAGGTTA,-0.192
5,ACCGCGTC,-0.0243
6,TATCGTAA,-0.0706
7,GGTGATAC,-0.125
8,AAAAGCAG,-0.144
9,CACCGCAC,-0.102
10,GCATGGCA,0.0483
11,ACGGGTAA,0.328
12,CAGCTTGG,-0.142
13,GCGAAACC,0.0204
14,GCGCCCAA,-0.0252
15,TCTATAGA,-0.159
16,AAAGGAAC,-0.0801
17,AGGCCCAT,-0.174
18,GAGGCCCC,0.0227
19,CTAACCTC,0.0386
20,CCGAGAGC,0.388
21,AGTCTCAC,-0.0748
22,CATGAACG,-0.179
23,GGGGGCGA,-0.167
24,AATCGATT,-0.24
25,CAGCCACA,-0.165

row,Sequence,PBM E-score
1,CCCAAGCC,0.00952
2,CTGGCACC,-0.123
3,CTGCGTAC,-0.144
4,ACACGTGC,-0.0793
5,CAACGGTA,-0.0237
6,ATAAGGAC,-0.0864
7,ACGGGAGC,0.147
8,CACAGCAG,-0.204
9,TAGGTCCA,-0.182
10,CCAGATGA,-0.15
11,AATACGTA,-0.162
12,ATTATCAC,0.0126
13,TATCTTAA,-0.0139
14,GCCGGTCA,0.0917
15,GGTGTTAA,0.0998
16,ACCATTGC,0.0356
17,GCGAAACA,-0.137
18,CGAGTTAC,0.14
19,AGAGGTTC,0.0565
20,CTCACGAG,-0.16
21,CTCAATTC,-0.0727
22,ATCATGCA,-0.198
23,GTGTGTAA,-0.0719
24,ACGATCGT,0.17
25,AGAACCAC,-0.152

row,Sequence,PBM E-score
1,GGCCTGTA,-0.0127
2,CCTCTTGA,-0.235
3,GTGGGGAA,-0.0909
4,AAGGCCAT,-0.0904
5,CTGCGCAC,-0.0303
6,TATCAAAA,-0.00412
7,GATCACAA,0.0092
8,ATATACAA,-0.0112
9,CTCGTCAC,0.0272
10,ACTACATC,-0.103
11,GAAACGGC,0.0806
12,CAACTTTA,-0.143
13,GCCCGAGA,0.352
14,CCAAGCAC,-0.219
15,AAATAATG,-0.0388
16,CCGAATAC,0.425
17,GGACGAAC,0.0688
18,GCTAAGCA,-0.217
19,AACGTAGT,-0.206
20,ATATGGTA,-0.127
21,CACATTGA,-0.0562
22,CGTTGTAA,-0.0705
23,GTAAGATA,0.0103
24,ACCCTGGC,-0.138
25,AAGCGCTT,-0.00971

row,Sequence,PBM E-score
1,CCGTATAC,0.00392
2,CCGAGACA,0.372
3,CATGGCCC,0.13
4,ATCCGGTG,0.397
5,ACTATTCA,-0.13
6,CGGTGCAC,0.0103
7,CTATAGCC,-0.0273
8,TAGGTTAA,-0.0443
9,CAACCGCC,0.081
10,CTCCAGAC,-0.128
11,GGGACAAA,0.186
12,CGGTTCCC,0.217
13,CTTATGTC,-0.0122
14,TCCGTTAA,0.259
15,TGATAGCA,-0.132
16,CTGTCCGC,-0.105
17,AAATGATA,0.112
18,ATGTAAAT,-0.136
19,GACAACCC,0.135
